T1: hIL10Rb-his (Sino Biological, Catalog#10945) (human, UniProt Q08334 20-220)
T1 construct: Bought; also called Sino Biological cat#10945-H08H; not shown: C-terminal poly-His tag
T1 sequence: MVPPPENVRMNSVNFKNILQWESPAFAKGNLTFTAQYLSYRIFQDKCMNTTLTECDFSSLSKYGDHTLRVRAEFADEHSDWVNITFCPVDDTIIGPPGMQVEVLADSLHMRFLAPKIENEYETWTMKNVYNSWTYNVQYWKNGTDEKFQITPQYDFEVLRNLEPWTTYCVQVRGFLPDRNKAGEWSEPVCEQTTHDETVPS


Tests used:
[1] = target: T1, hIL10Rb-his (Sino Biological, …); assay: SPR Biacore T200; hIL10Rb-his captured on anti-histidine chip, humanized mono-Fc VHH analyte, single cycle kinetics; 1:1 Langmuir fit
Method: (§1) All experiments were conducted in 10 mM Hepes, 150 mM NaCl, 0.05% (v/v) Polysorbate 20 (PS20) and 3 mM EDTA (HBS-EP+ buffer) on a Biacore T200 instrument equipped with an anti-histidine capture chip (Cytiva). ˜0.5 μg/mL hIL10Rb-his (Sino Biological cat #10945) was flowed at 5 μl/min for 120 seconds, reaching the capture loads listed in the table below. Following ligand capture, injections of a 2-fold dilution series (50, 25, 12.5, 6.25, 3.13 nM) of humanized, mono-Fc VHHs (see analyte in table) was performed in single cycle kinetics mode. Surface regeneration was achieved by flowing 10 mM glycine-HCl, pH 1.5 (60 seconds, 50 μL/min). Buffer-subtracted sensograms were processed with Biacore T200 Evaluation Software and globally fit with a 1:1 Langmuir binding model (bulk shift set to zero) to extract kinetics and affinity constants (kₐ, kd, KD). RMAX<100 RU indicates surface density compatible with kinetics analysis. Calculated Rmax were generated using the equation Rmax=Load (RU)×valency of ligand×(Molecular weight of analyte/Molecular weight of ligand. Surface activity was defined as the ratio experimental/calculated Rmax. See tables below for sample information and experimental results.

[2] = target: T1, hIL10Rb-his (Sino Biological, …); assay: SPR; ratio of experimental to calculated Rmax
Method: as §1

Binder	Kd [1] [nM]	koff [1] [s⁻¹]	kon [1] [M⁻¹ s⁻¹]	Surface Activity [2] [%]
DR1227 (humanized DR246 IL10Rb VHH), mono-Fc (Fc fusion) EVQLLESGGGLVQPGGSLRLSCAASGYTHSSYCMGWVRQAPGKGLEWVSAIDVDGSTTYADSVKGRFTISRDNSKNTLYLQMNSLRAEDTAVYYCAAEFADCSSNYFLPPGAVRYWGQGTLVTVSSASRV[letters of human IgG4 Fc with S228P N297G (EU numbers) not shown]	12.3	0.0056	460000	14
DR1230 (humanized DR246 IL10Rb VHH), mono-Fc (Fc fusion) EVQLVESGGGLVQPGGSLRLSCAASGYTHSSYCMGWVRQAPGKGLEGVSAIDVDGSTTYADSVKGRFTISRDNSKNTLYLQMNSLRAEDTAVYYCAAEFADCSSNYFLPPGAVRYWGQGTLVTVSSASRV[letters of human IgG4 Fc with S228P N297G (EU numbers) not shown]	7.1	0.00098	140000	

Now from value to binder:

Kd [1] [nM]	koff [1] [s⁻¹]	kon [1] [M⁻¹ s⁻¹]	Surface Activity [2] [%]	Binder
7	0.00092	130000		DR1228 (humanized DR246 IL10Rb VHH), mono-Fc (Fc fusion) EVQLLESGGGLVQPGGSLRLSCAASGYTHSSYCMGWVRQAPGKGLEGVSAIDVDGSTTYADSVKGRFTISRDNSKNTLYLQMNSLRAEDTAVYYCAAEFADCSSNYFLPPGAVRYWGQGTLVTVSSASRV[letters of human IgG4 Fc with S228P N297G (EU numbers) not shown]
13.8	0.0096	700000	14	DR1229 (humanized DR246 IL10Rb VHH), mono-Fc (Fc fusion) EVQLVESGGGLVQPGGSLRLSCAASGYTHSSYCMGWVRQAPGKGLEWVSAIDVDGSTTYADSVKGRFTISRDNSKNTLYLQMNSLRAEDTAVYYCAAEFADCSSNYFLPPGAVRYWGQGTLVTVSSASRV[letters of human IgG4 Fc with S228P N297G (EU numbers) not shown]
